Assay results as given in PubChem BioAssay AID488969 (Vanderbilt High Throughput Screening Facility, 2010).
Several values for one entry are separate records, joined by “and”; a condition that tells them apart may be missing. Identical values can stand only once. Whole data set: some 110,000 compounds, median “z-score” near -0.1, cut for the highest 2% near 2. This is one part of the list.

Target: Metabotropic glutamate receptor 8 (Rattus norvegicus) (UniProt P70579)
Assay: mGluR8 Gi/Go-coupled signaling modulation – cell-based, rat, thallium flux, HTS, primary screen (AID 488969)
Settings: HEK293 rat mGluR8, GIRK (G protein-gated inwardly rectifying potassium channel) thallium flux, FluoZin2; at 10 µM; stronger effect = higher value

UniProt P70579, sequence (P70579 whole entry, looked up): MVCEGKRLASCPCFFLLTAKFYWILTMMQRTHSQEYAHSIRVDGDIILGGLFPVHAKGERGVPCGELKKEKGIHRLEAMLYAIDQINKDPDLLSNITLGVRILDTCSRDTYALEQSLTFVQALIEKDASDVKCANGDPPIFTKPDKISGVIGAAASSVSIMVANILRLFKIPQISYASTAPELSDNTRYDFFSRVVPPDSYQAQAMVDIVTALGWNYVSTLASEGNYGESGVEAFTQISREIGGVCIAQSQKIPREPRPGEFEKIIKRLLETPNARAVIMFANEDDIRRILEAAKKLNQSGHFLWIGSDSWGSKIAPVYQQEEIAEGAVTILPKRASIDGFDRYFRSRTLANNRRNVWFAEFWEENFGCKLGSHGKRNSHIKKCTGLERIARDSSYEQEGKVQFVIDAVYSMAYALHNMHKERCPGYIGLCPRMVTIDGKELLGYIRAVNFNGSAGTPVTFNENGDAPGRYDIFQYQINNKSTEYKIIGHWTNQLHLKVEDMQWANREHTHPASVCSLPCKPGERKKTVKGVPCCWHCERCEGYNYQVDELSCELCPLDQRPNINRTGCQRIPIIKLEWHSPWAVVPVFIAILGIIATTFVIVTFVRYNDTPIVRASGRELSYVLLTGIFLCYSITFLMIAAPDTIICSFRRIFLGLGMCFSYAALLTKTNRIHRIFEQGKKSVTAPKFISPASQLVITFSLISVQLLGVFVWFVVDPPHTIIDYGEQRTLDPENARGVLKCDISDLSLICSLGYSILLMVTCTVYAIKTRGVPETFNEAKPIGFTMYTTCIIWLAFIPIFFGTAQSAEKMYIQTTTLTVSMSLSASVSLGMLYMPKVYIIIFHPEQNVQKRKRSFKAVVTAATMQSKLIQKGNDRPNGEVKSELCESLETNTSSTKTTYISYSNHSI

Compared with `COc1ccc2c(c1)c(C(=O)O)c(C)n2C(C)C`, `C=CCn1c(O)c(C=Nc2ccc(OC)cc2C)c(=O)[nH]c1=O` is lower in z-score: -0.218 for the first, -0.579 for the second.

First: Cc1cc(NC(=O)COC(=O)c2c(C)nn(Cc3ccccc3)c2Cl)no1
Second: CCc1ccc(NC(=O)C(C)OC(=O)c2c(C)nn(Cc3ccccc3)c2Cl)cc1 (stereo not drawn)
The z-score of the first is lower: -0.144 for the first, -0.0695 for the second.

Going from `OC(c1ccncc1)(c1ccc(F)cc1)c1ccc(F)cc1` to `COc1ccc(CCNCc2ccncc2)cc1`, the z-score rises from -0.666 to 0.0405.

First: COCCCNC(=O)c1c(NC(=O)c2ccccc2)n(Cc2ccccc2)c2nc3ccccc3nc12
Second: CCCCNC(=O)c1c(N)n(Cc2ccc3c(c2)OCO3)c2nc3ccccc3nc12
The z-score of the first is lower: -0.0509 for the first, 0.00707 for the second.

Going from `COc1ccc(OC)c(N2C(=O)NC(=O)C3(Cc4cc(C)ccc4N(C)C3)C2=O)c1` (stereo not drawn) to `CCc1ccc(N2C(=O)NC(=O)C(Cc3ccc(OC)cc3OC)C2=O)cc1` (stereo not drawn), the z-score falls from -0.426 to -0.562.

Going from `O=C(c1ccc(CS(=O)(=O)c2ccccc2)o1)N1CCC2(CC1)OCCO2` to `COc1ccc(S(=O)(=O)NC(CC(=O)N2CCC3(CC2)OCCO3)c2ccco2)cc1` (stereo not drawn), the z-score falls from 0.175 to -0.0947.

First: Cc1ccc(N2C(=O)NC(=O)/C(=C\c3cnc(-c4ccccc4)nc3)C2=O)cc1
Second: Cc1cccc(N2C(=O)NC(=O)/C(=C\c3cccn3-c3ccc(Cl)cc3)C2=O)c1
The z-score of the first is lower: -0.41 for the first, -0.0172 for the second.

Compared with `O=c1c2ccccc2nc(-c2ccccc2)n1-c1cccnc1`, `Cc1cccc(-n2c(/C=C/c3ccc([N+](=O)[O-])o3)nc3ccccc3c2=O)c1` is lower in z-score: -0.194 for the first, -0.323 for the second.

Compared with `O=C(c1cc(C(=O)NCc2ccccc2)c(=O)n(Cc2ccccc2)c1)c1cc(Br)ccc1O`, `N#Cc1ccc(Cn2cc(C(=O)c3ccco3)c3ccccc32)cc1` is lower in z-score: 0.0905 for the first, -0.561 for the second.

Compared with `C=CCN1C(=O)CSc2ccc(C(=O)N3CCC4(CC3)OCCO4)cc21`, `Cn1c2ccccc2c2c(C(=O)N3CCC4(CC3)OCCO4)cn(C3CCCCC3)c(=O)c21` is lower in z-score: -0.28 for the first, -0.338 for the second.

Going from `CCS(=O)(=O)N1CCCC(C(=O)N2CCC3(CC2)OCCO3)C1` (stereo not drawn) to `CS(=O)(=O)N1CCCC(C(=O)N2CCC3(CC2)OCCO3)C1` (stereo not drawn), the z-score rises from 0.0065 to 0.0109.

Compared with `O=C1CCCN1c1ccc(S(=O)(=O)O)cc1` (tested in a mixture with another compound), `Nc1ccc(C(=O)N/N=C2/CN3CCC2CC3)cc1` is higher in z-score: -0.0877 for the first, 0.939 for the second.

Compared with `CC(Cc1ccccc1Sc1ccc(O)cc1)N(C)C` (stereo not drawn), `CN(C)C(Cc1ccc(Cl)cc1)C(=O)c1ccccc1` (stereo not drawn) is lower in z-score: 1.64 for the first, -0.222 for the second.

First: COC(=O)c1cncn1C(C)c1ccccc1 (stereo not drawn)
Second: O=C(NCC(c1cccnc1)N1CCOCC1)Oc1ccccc1 (stereo not drawn)
The z-score of the first is lower: -0.22 for the first, 0.264 for the second.

Going from `CC(O)(CS(=O)(=O)c1ccccc1)C(=O)Nc1ccc(C(F)(F)F)cc1` (stereo not drawn) to `CC(O)(CS(=O)(=O)c1cccc(C(F)(F)F)c1)C(=O)Nc1ccc(C(F)(F)F)cc1` (stereo not drawn), the z-score rises from 0.236 to 0.252.

First: CCCC(=O)Nc1ccc(N2CCN(CC)CC2)c(Cl)c1
Second: CCCNS(=O)(=O)c1ccc(OCC(=O)N2CCN(Cc3ccccc3)CC2)cc1
The z-score of the first is higher: -0.142 for the first, -0.226 for the second.

Going from `CCOCCCn1c(N)c(C(=O)Nc2sc3c(c2C(=O)OC)CCCC3)c2nc3ccccc3nc21` to `CCOC(=O)c1c(N)n(CCN2CCOCC2)c2nc3ccccc3nc12`, the z-score falls from -0.316 to -0.337.

First: Cc1oc(-c2ccc(Cl)cc2)nc1CS(=O)CC(=O)N1CCC2(CC1)OCCO2 (stereo not drawn)
Second: O=C(c1cc(-c2ccncc2)nc2ccccc12)N1CCC2(CC1)OCCO2
The z-score of the first is higher: -0.308 for the first, -0.598 for the second.

Compared with `Cc1cc(C)c(NC2=NCCCS2)c(C)c1`, `CN(C)c1cc(N)c2c(n1)CCC2` (tested in a mixture with another compound) is lower in z-score: 1.03 for the first, 0.506 for the second.

First: O=C1C(=O)c2ccccc2-c2ccccc21
Second: O=C(Cc1ccccc1)OCn1nnc2ccccc2c1=O
The z-score of the first is higher: 0.416 for the first, -0.2 for the second.

Going from `Cn1c(CN2CCN(C(=O)COc3ccccc3)CC2)nc2cc([N+](=O)[O-])ccc21` to `Cc1ccc(OCC(=O)N2CCN(CC3CC4C=CC3C4)CC2)cc1` (stereo not drawn), the z-score rises from -1.43 to -0.847.

Going from `CC(=NCc1cccnc1)c1c(O)n(-c2ccccc2C)c(=O)[nH]c1=O` to `CC(=NCc1cccnc1)c1c(O)n(-c2ccccc2)c(=O)[nH]c1=O`, the z-score falls from 0.169 to -0.0189.

Going from `CC(=O)NC(=O)NC(C)Cc1ccccc1` (stereo not drawn) to `CCCOP(=O)(OCCC)C(NC(=O)c1ccccc1)=C(Cl)Cl`, the z-score falls from 0.0248 to -0.078.

Going from `CCCCC1C(=O)NC(=S)NC1=O` to `CCCC(C)C1(CC)C(=O)NC(=Nc2ccc(F)cc2)NC1=O` (stereo not drawn), the z-score rises from -0.152 to -0.142.

Going from `CC(=NCc1cccnc1)c1c(O)n(C2CCCCC2)c(=O)[nH]c1=O` to `CC(=NCCN1CCOCC1)c1c(O)n(Cc2ccccc2)c(=O)[nH]c1=O`, the z-score falls from -0.0505 to -0.628.

First: C(#CCN1CCOCC1)COCC#Cc1ccccc1
Second: O=C1NC(=O)N(Cc2ccccc2Cl)C(=O)/C1=C/N1CCOCC1
The z-score of the first is higher: 0.199 for the first, -0.529 for the second.

First: CCc1c(C)nc(N)nc1N1N=C1SC
Second: Cc1cc(C)n2nc(SCC(=O)N3CCC4(CC3)OCCO4)nc2n1
The z-score of the first is lower: 0.21 for the first, 0.345 for the second.

Compared with `Cc1ccccc1OCCN=Cc1c(O)n(C)c(=O)n(C)c1=O`, `COc1ccccc1-n1c(O)c(C=NCCN2CCNCC2)c(=O)[nH]c1=O` is higher in z-score: -0.247 for the first, 0.531 for the second.

Going from `Cc1cc(C=C2C(=O)NC(=S)NC2=O)c(C)n1-c1ccc2c(c1)OCO2` to `Cc1ccc(-n2c(C)cc(/C=C3/C(=O)NC(=O)N(Cc4ccco4)C3=O)c2C)cc1`, the z-score rises from -0.495 to 0.147.

Going from `N#CCCn1cc(C(=O)Nc2ccccc2Br)c(-c2ccc3c(c2)OCCO3)n1` to `Cc1ccc(NC(=O)c2cn(CCC#N)nc2-c2ccc3c(c2)OCCO3)c([N+](=O)[O-])c1`, the z-score rises from -0.369 to 0.0107.

Going from `COc1cccc(NP(=O)(Oc2ccccc2)Oc2ccccc2)c1` to `O=C(Cc1ccccc1)NC(Oc1ccccc1Cl)C(Cl)(Cl)Cl` (stereo not drawn), the z-score rises from -0.112 to -0.0918.

First: CCc1ccc(N2C(=O)NC(=O)/C(=C\c3cccn3CCOc3ccc(C(C)C)cc3)C2=O)cc1
Second: Cc1ccc(N2C(=O)NC(=O)/C(=C/C=C/c3ccco3)C2=O)cc1
The z-score of the first is higher: -0.195 for the first, -0.463 for the second.

First: COc1cc(C2SCC(=O)Nc3c2c(C)nn3-c2ccccc2)cc(OC)c1OC (stereo not drawn)
Second: CCCC(C)n1[nH]c(=O)c2c1NC(=O)CSC2c1ccc(OC)c(OC)c1 (stereo not drawn)
The z-score of the first is higher: -0.0801 for the first, -0.203 for the second.

Compared with `CCC(=NCCO)c1c(O)n(-c2ccc(Cl)cc2)c(=O)[nH]c1=O`, `CC/C(=N\Nc1cccc2ccccc12)c1c(O)[nH]c(=O)[nH]c1=O` is higher in z-score: -0.403 for the first, -0.114 for the second.

First: O=c1c2ccccc2nc(CSc2ncnc3nc[nH]c23)n1-c1ccc(Cl)c(Cl)c1
Second: CCCCCc1nc2ccccc2c(=O)n1-c1ccc(Cl)cc1[N+](=O)[O-]
The z-score of the first is higher: -0.202 for the first, -0.289 for the second.

Going from `CCN1C(=O)C(=Cc2cc(C)n(C3CC3)c2C)C(=O)N(CC)C1=S` to `Cc1cc(C=C2C(=O)N(C)C(=S)N(C)C2=O)c(C)n1C1CCCC1`, the z-score falls from -0.0808 to -0.175.

First: CN1C(=O)/C(=C/c2ccc(N3CCCCCC3)o2)C(=O)NC1=S
Second: C=CCN1C(=O)/C(=C/c2ccc(N3CCOCC3)o2)C(=O)NC1=S
The z-score of the first is lower: -0.805 for the first, -0.391 for the second.

Going from `CN1CCc2nc3sc(C(=O)NC(C)(C)C)c(N)c3cc2C1` to `CCOC(=O)C1CN(C)CCC1=O` (stereo not drawn), the z-score rises from -0.79 to 0.538.

Going from `O=C(C1CCC(=O)N1C1CCCCC1)N1CCC2(CC1)OCCO2` (stereo not drawn) to `O=C(C1CC(=O)N(C2CCCCC2)C1)N1CCC2(CC1)OCCO2` (stereo not drawn), the z-score falls from -0.316 to -0.448.

Compared with `N#Cc1ccccc1Cn1cc(C(=O)C2CC2)c2ccccc21`, `CN1CCC(N(C)c2nc(-c3ccccc3)nc3ccccc23)CC1` is lower in z-score: 0.255 for the first, 0.199 for the second.

Going from `O=c1[nH]c(=O)n(CCC2=CCCCC2)c(O)c1C=Nc1cccc(F)c1` to `Nc1cccc(N=Cc2c(O)n(Cc3ccc(F)cc3)c(=O)[nH]c2=O)c1`, the z-score rises from -0.0602 to 0.514.

Compared with `CC(C)CCC1(CCc2ccncc2)C(=O)NC(=O)NC1=O`, `CC(C)C1(C)N=C(c2ncccc2C(=O)O)NC1=O` (stereo not drawn) is higher in z-score: -0.237 for the first, -0.149 for the second.

First: O=C(COC(=O)Cc1ccccc1)NC12CC3CC(CC(C3)C1)C2
Second: O=C(Cc1ccccc1)Oc1cccc(N2C(=O)CCC2=O)c1
The z-score of the first is lower: -0.0902 for the first, 0.179 for the second.

Compared with `CN(C)C1=C(C#N)C(c2ccccc2)=NP(N(C)C)(N(C)C)=N1`, `CN(C)C(=O)Oc1ccc(-c2nnco2)cc1` is lower in z-score: 1.36 for the first, 0.238 for the second.

First: CCC(=NCc1ccc2c(c1)OCO2)c1c(O)n(C)c(=O)n(C)c1=O
Second: COc1ccc(CCn2c(O)c(C=NCCCN(C)C)c(=O)[nH]c2=O)cc1OC
The z-score of the first is lower: -0.46 for the first, 0.11 for the second.

Compared with `CC1CCC/C=C/C2CC(O)CC2C(O)/C=C/C(=O)O1` (stereo not drawn), `O=C1C2CCN(CC2)C1Cc1ccccc1O` (stereo not drawn) is higher in z-score: -0.522 for the first, -0.0121 for the second.

Compared with `Cc1cc(C=O)c(C)n1C1CCCCC1`, `NCC(CC(=O)O)C1CCCCC1` (stereo not drawn) is lower in z-score: -0.0555 for the first, -0.206 for the second.

Compared with `O=C(Cn1cnc2ccccc2c1=O)NCCC(=O)N1CCC2(CC1)OCCO2`, `O=C(CCC(=O)N1CCC2(CC1)OCCO2)Nc1nnc(C(F)(F)F)s1` is higher in z-score: 0.539 for the first, 0.567 for the second.

Going from `Cc1cccn2c(=O)c3c(nc12)N1CCC(Cc2ccccc2)CC1C1(C3)C(=O)N(C)C(=O)N(C)C1=O` (stereo not drawn) to `CC(C)N1C(=O)NC(=O)C2(Cc3cc([N+](=O)[O-])ccc3N(C)C2c2ccccc2)C1=O` (stereo not drawn), the z-score falls from -0.109 to -0.35.

First: CCCN(CC#CCO)CCC
Second: CCC(C)C12CN3CCN(CC(C)(C3)C1=O)C2 (stereo not drawn)
The z-score of the first is higher: 0.103 for the first, -0.0708 for the second.

First: O=c1cccc2n1CC1CC2CN(C(c2cccc(F)c2)c2sc3ncnn3c2O)C1 (stereo not drawn)
Second: O=c1[nH]c(=O)n(-c2cccc3ccccc23)c(O)c1C=NCCCn1ccnc1
The z-score of the first is lower: -0.481 for the first, 0.105 for the second.

Going from `O=C1C2CCCN2C(c2ccc(Cl)cc2)N1c1ccccn1` (stereo not drawn) to `COc1ccc(C2C([N+](=O)[O-])=C(N)Oc3c2c(=O)oc2ccccc32)cc1` (stereo not drawn), the z-score falls from 2.77 to -0.321.

Compared with `CN1CCN(Cc2ccc(OC(F)(F)F)cc2)CC1`, `O=C(CN1CCCCC1)c1ccc(OC(F)F)cc1` is higher in z-score: -0.0428 for the first, 0.0855 for the second.

Work on `N#Cc1c(/N=C/c2ccc(O)cc2O)sc2c1C1CCN2CC1` yielded a z-score of -0.499.

In the case of `Cn1nc(-c2ccc(OCC(=O)N3CCN(Cc4ccccc4)CC3)cc2)c2ccccc2c1=O`, the z-score is reported as -0.22 and -0.55.
